Results reported in PubChem BioAssay AID1508623 (National Center for Advancing Translational Sciences (NCATS), 2021).
Among all 48,000 compounds or so, about 450 (0.94%) were called active. Inconclusive results (about 19%) are left out. Calls follow the shape of the dose curve; as a rule, active = well fitted inhibition curve with a large enough effect; inconclusive = small, poorly fitted or top-dose-only effect; inactive = no such curve, though single readings can be large or run the other way. The list shows a part of the results.

test: Primary qHTS for Identification of Small Molecule Inhibitors of Huntingtin Promoter Activity; conditions: HEK293 HTT promoter firefly luciferase reporter (activity 0% = vehicle and -100% = no light), 24 h; series mostly up to 57.5 µM; activity change, negative = inhibition: at the top concentration; also: nearly all actives have a fitted effect of over 50% in size
Method in brief: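 HEK293 Fluc reporter, 2,500 cells/well, 24 h pre-culture; cpds up to 57.5 uM final, 24 h 37 degrees C; Dual-Glo, 10 min RT; normalized vehicle = 0%, zero RLU = -100%.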
Potency is read from the fitted curve at half-maximal effect.

Activity change, negative = inhibition, inactive:
Cc1cnc2c(c1SCC(=O)NCc1ccccc1Cl)c(=O)n(C)c(=O)n2C -6.96%
CC(C)(Oc1ccc(Cl)cc1)C(=O)Nc1nnc2n1CCS2 -10%
CCCCNC(=O)CC1N=C2c3ccccc3N=C(SCC(=O)NCc3ccccc3Cl)N2C1=O (stereo unspecified) -7.86%
COc1cccc(C(=O)Nc2cccc(OCc3cc(=O)n4cccc(C)c4n3)c2)c1 -2.72%
Cc1ccc(NC(=O)CCC(=O)N2CCSc3ccccc32)cc1 -13.2%
Clc1ccc(-c2noc(-c3cccnc3N3CCN(c4ccccc4)CC3)n2)cc1 2.48%
CCOc1ccc(NC(=O)Cn2cc(C(=O)c3ccccc3)c(=O)c3cc4c(cc32)OCCO4)cc1 -8.28%
Cc1ccn2c(Nc3ccccc3C)c(-c3cccnc3)nc2c1 -18.7%
CCOc1ccc(CCNC(=O)C2CCN(Cc3nc(-c4ccccc4C)oc3C)CC2)cc1OCC -4.74%
O=C(CC(NCc1cccnc1)C(=O)O)Nc1ccc(O)cc1 (stereo unspecified) -22.4%
CCN(C(=O)CSc1nc2ccccc2n1CC(=O)N1CCCC(C)C1)c1ccccc1 (stereo unspecified) -22.4%
Fc1ccc(Nc2c(-c3ccco3)nc3ccccn23)cc1 -37.3%
Cn1c(=O)c(=O)n(C)c2cc(S(=O)(=O)Nc3ccc(Cl)c(C(F)(F)F)c3)ccc21 -27.9%
CC(C)(C)c1ccc(C(=O)N2CCN(Cc3cc(=O)n4nc(-c5ccccc5F)sc4n3)CC2)cc1 -2.58%
Cc1ccc(NC(=O)C2CCC(CNS(=O)(=O)c3ccc4c(c3)C(C)(C)C(=O)N4C)CC2)cc1 (stereo unspecified) -25.6%
CCOc1ccc(CNC(=O)Cc2ccc(NC(=O)N3CCCCc4ccccc43)cc2)cc1OC -27.3%
COc1cc(OC)c(NC(=O)Cn2cnc3nc4c(cc3c2=O)CCCC4)cc1Cl -23.2%
Cc1cc(=O)oc2cc(OCC(=O)Nc3c(C(C)C)cccc3C(C)C)ccc12 -1.56%
COc1cc(NC(=O)CCNC(=O)Cn2cnc3ccccc3c2=O)cc(OC)c1OC -7.53% [at 11.5 µM]
COc1ccc(CCn2c(=O)c3cccnc3n(CC(=O)Nc3c(C)cc(C)cc3C)c2=O)cc1OC 8.73%
Cc1cc(C)c(NC(=O)Nc2csc3c2CCCC3)c(C)c1 -3.74%
O=C(CCCCCn1c(=O)[nH]c2ccccc2c1=O)NCc1ccc(Cl)cc1 -3.25%
CCC(=O)N1CCc2cc(Br)cc(S(=O)(=O)NCc3ccccc3)c21 -9.12%
O=C(O)c1cc(=O)c2c(OCC(O)COc3cccc4oc(C(=O)O)cc(=O)c34)cccc2o1
CSc1ccc(CCNC(=O)C2CCN(c3ncnc4c3nc3n4CCCCC3)CC2)cc1 -3.46%
CCN(CC)C(=O)COc1ccc(-c2nnc(Nc3ccc(OC)c(C(=O)NC)c3)c3ccccc23)cc1 1.72%
Cc1sc2ncn(CC(=O)N(C)c3cccc(C(F)(F)F)c3)c(=O)c2c1S(=O)(=O)N1CCN(c2ncccn2)CC1 -14.6%
Fc1ccc(-n2ncc3c(N4CCN(c5ccccc5F)CC4)ncnc32)cc1 -25.4%
Cc1cc(=O)oc2c3c(ccc12)OCN(Cc1ccc(Cl)cc1)C3 -11.4%
CCn1nc(C)c2c(-c3ccccc3)cc(=O)n(C(C)C(=O)NCCc3ccccc3)c21 (stereo unspecified) -14.3%
COc1cccc(-c2nnc3sc(CN4CCCCC4)cn23)c1 0%
CCC1CCCCN1C(=O)Cn1c(=O)n(CCCCCC(=O)NCc2ccccc2Cl)c(=O)c2sccc21 (stereo unspecified) -6.59%
O=C(NCCc1ccc(Cl)cc1)c1ccc2c(c1)N(Cc1cccc(Cl)c1)C(=O)c1ccccc1S2(=O)=O -28.6%
Fc1ccccc1Nc1ncnc2c1nc1n2CCCCC1 22.5%
COc1ccc(C2CC(=O)Oc3c2c(=O)n(C)c2ccccc32)c(OC)c1OC (stereo unspecified) -16.7%
CCOc1ccc(NC(=O)CS(=O)(=O)Cc2nc(-c3ccc(C)cc3)oc2C)cc1 -21.8%
CC(=O)OC(C)C[N+](C)(C)C (stereo unspecified) 2%
COc1ccc(OC)c2sc(N(CCCN(C)C)C(=O)c3ccco3)nc12 -13%
CCCCOc1ccc(CC(=O)NO)cc1
Cc1ccccc1CNC(=O)CCSCc1cnn(-c2ccccc2)c1-n1cccc1 -30%
O=c1c2oc3ccccc3c2ncn1Cc1ccc(Br)cc1 -3.72%
COc1ccc(C2c3c(oc4ccccc4c3=O)C(=O)N2c2nc(C)c(C)s2)cc1 (stereo unspecified) -16.6% [at 11.5 µM]
Cc1nc2nc(C)c(CCC(=O)NCCc3ccccc3)c(C)n2n1 3.47%
Cc1ccc2nc(CN3CCN(S(=O)(=O)c4ccccc4)CC3)oc2c1 0%
CC(C)Oc1cccc(C(=O)Nc2ccc3oc(-c4ccccc4)nc3c2)c1 -25.5%
CCc1ccc(NC(=O)CSc2nc3ccccc3c(=O)n2CCC(=O)NC2CCCCC2)cc1 -16.6%
CCC(Sc1nc2cc3c(cc2c(=O)n1CCCC(=O)NCc1ccc2c(c1)OCO2)OCO3)C(=O)NCCCOC (stereo unspecified) -14.8%
CCC(=O)N1c2ccc(S(=O)(=O)N3CCCCCC3)cc2CC1C (stereo unspecified) -8.68%
Nc1c(-c2nc(-c3ccccc3Cl)no2)nnn1-c1ccccc1F 89.1%
COc1ccc(NC(=O)C(NS(=O)(=O)c2cccc3nsnc23)c2ccccc2)cc1 (stereo unspecified) -13.7%
CCOc1cc(-c2nnc(SCC(=O)NCCCOC)nc2-c2ccc(OC)c(OCC)c2)ccc1OC -2.51%
CCC(=O)Nc1nnc(S(=O)(=O)N2CCCCCC2)s1 -7.64%
CCCCSc1nnc2c(n1)OC(c1ccc(C)s1)Nc1ccccc1-2 (stereo unspecified) 22.4%
Cc1ccc(N2CCN(S(=O)(=O)c3cc(Br)cc4c3N(C(=O)C3CC3)CC4)CC2C)cc1 (stereo unspecified) -1.68%
CCS(=O)(=O)N1CC(=O)N(c2ccc(C)c(C)c2)C(C)(C(=O)NC2CCCCCC2)C1 (stereo unspecified) 3.7%
CCCN(C(=O)c1cn(CC(C)C)c(=O)c2cc(OC)c(OC)cc12)c1cccc(C)c1 -22.9%
COc1ccc(N2CC(NC(=O)Cc3cccs3)CC2=O)cc1OC (stereo unspecified) -5.5%
CCCCOC(=O)c1ccc(NC(=O)/C(C#N)=C/c2ccc(C)o2)cc1 -37.6% [at 11.5 µM]
CCCCNS(=O)(=O)c1ccc2nc(-c3cccnc3)cc(C(=O)NCCCOCC)c2c1 3.12%
Cc1ccc(NC(=O)COCc2cc(-c3cccs3)on2)cc1Cl -7.51%
C[C@H]1c2cccc(O)c2C(O)=C2C(=O)[C@]3(O)C(O)=C(C(N)=O)C(=O)[C@@H](N(C)C)[C@@H]3[C@@H](O)[C@@H]21
CCOc1ccccc1CNC(=O)CCn1cccn1 7.2%
Cc1[nH]c2ccccc2c1C(=O)C(=O)NC1CC(=O)N(c2ccccc2)C1 (stereo unspecified) -22.7%
COC(=O)c1ccc(NC(=O)CN(c2cccc(C(F)(F)F)c2)S(C)(=O)=O)cc1 -7.24%
Cc1cccc(-n2c(SCC(=O)Nc3ccccc3C)nc3c(oc4ccccc43)c2=O)c1 -22.8%
CCc1ccccc1N1C(=O)N(C)c2ccccc2S1(=O)=O -21.7%
CCCN(CCC)CCCNC(=O)C1CCN(S(=O)(=O)c2cccc3nsnc23)CC1 -5.01%
CCOc1ccc(S(=O)(=O)N2CCN(c3ccc(C)cc3C)CC2)c2ccccc12 -14.9%
CCCCCCCCCCCCCCCCO -4.88%
O=C1COc2ccc(-c3cc(-c4ccc(F)cc4)c4c(n3)-c3ccccc3OC4)cc2N1 -9.47%
CCN(C(=O)c1ccc2c(=O)n3c(nc2c1)CCCCC3)c1cc(C)ccc1C -19.6%
CCCOc1cccc(C2c3c(oc4cc(C)c(C)cc4c3=O)C(=O)N2CCCN2CCOCC2)c1 (stereo unspecified) -17.2%
CCC(=O)N1CCc2cc(S(=O)(=O)NC(C(=O)NCCc3ccc(C)cc3)C(C)C)ccc21 (stereo unspecified) -12.1%
Cc1ccc(C)c(C(=O)CSc2nc3cc(C(=O)NC4CCCC4)ccc3c(=O)n2CC2CCCO2)c1 (stereo unspecified) -5.46%
COCc1cc(C)n(CC(=O)Nc2cccc(C(C)=O)c2)c(=O)c1C#N -0.476%
Cc1ccc(-c2nc3cc(NC(=O)c4cc(Br)ccc4Cl)ccc3o2)cc1 18.6%
CCOc1ccccc1C(=O)N1CCCCC1CCN1CCOCC1 (stereo unspecified) 2.45%
CC(C)CCNC(=O)c1ccc2c(c1)N(C)C(=O)c1ccccc1S2 -18%
CC(C)c1nn2c(=O)cc(COC(=O)c3ccccc3Cl)nc2s1 24.7%
COc1ccc(N2CCN(Cc3nc(-c4ccc(C)cc4)no3)CC2)cc1 -24.3%
CCOc1cc2[nH]c(=O)n(CCCCCC(=O)NC(C)CC)c(=O)c2cc1OCC (stereo unspecified) -7.07%
CCC(Cc1ccccc1)NC(=O)Cn1ncc2c3ccccc3n(Cc3ccc(F)cc3)c2c1=O (stereo unspecified) -22.9%
O=C(O)CCn1ccc2cc(S(=O)(=O)N3CCCCC3)ccc21 -30.1%
O=C(NCc1ccccc1Cl)C1CCN(c2ncnc3c2nc2n3CCCCC2)CC1 -5.56%
COc1ccc2nc3cc(Cl)ccc3c(Nc3cc(CN4CCCC4)c(O)c(CN4CCCC4)c3)c2n1 8.81%
COc1ccc(-c2csc(-c3c(N)c(C(=O)c4ccccc4)n4ccccc34)n2)cc1 2.36%
Cc1nnc(NC(=O)CSCc2cc(=O)c3ccc(C)c(C)c3[nH]2)s1 -2.99%
Cc1ccc(-n2nc3c(N4CCC(C(=O)NCCC(C)C)CC4)nnc(C)c3c2C)cc1 -24.5%
Cc1ccc2oc(=O)c3cc(C(=O)Nc4cccc(C#N)c4)sc3c2c1 -11.1%
CCC(=O)N1c2ccccc2CC1C(=O)NCCc1ccc(Cl)cc1 (stereo unspecified) -10.9%
O=C(Cn1nnnc1-c1ccccc1F)Nc1ccc(F)c(F)c1 -7.04%
Cc1cc(C)cc(-n2ccnc2SCC(=O)Nc2ccc(C)c(Cl)c2)c1 -14.1%
CCOc1ccccc1NC(=O)c1nnn(CC(=O)Nc2ccccc2CC)c1N 9.18%
COc1ccc(NC(=O)c2[nH]nc3c2CSc2ccccc2-3)c(OC)c1 0.987%
COc1ccc(-n2c3c(cc(-c4nc(-c5ccc(Cl)cc5)cs4)c2=O)C(=O)CC(C)(C)C3)cc1 -2.49%

Potency, active:
CCOc1ccc(C(NC(=O)c2cc(OC)c(OC)c(OC)c2)c2cc(Cl)c3cccnc3c2O)cc1 (stereo unspecified) 3.55 µM
